# Data as given in PubChem BioAssay AID588579 (National Center for Advancing Translational Sciences (NCATS), 2011).
# Screen size: about 400,000 compounds; about 2,200 (0.55%) were called active. This list was built around the results that the source calls inconclusive (neither active nor inactive); the mix of calls is not that of the screen. Calls follow the shape of the dose curve; as a rule, active = well fitted inhibition curve with a large enough effect; inconclusive = small, poorly fitted or top-dose-only effect, or another doubt; inactive = no such curve, though single readings can be large or run the other way. A potency beside an inconclusive call is a rough fit, not a confirmed value.
# Target: DNA polymerase kappa (Homo sapiens) (UniProt Q9UBT6)
# Assay: qHTS for Inhibitors of Polymerase Kappa
# Details: purified Pol kappa, fluorescent DNA synthesis assay, 10 min; series mostly up to 107 µM
# Summary of the method: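 50 nM final substrate added after 15 min RT preincubation of 10 nM Pol kappa with compound; fluorescence read at 0 and 10 min.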
# Potency is read from the fitted curve at half-maximal effect; tags tell the direction and shape of the fitted curve.
# Sequence of UniProt Q9UBT6 (Q9UBT6 whole entry, looked up): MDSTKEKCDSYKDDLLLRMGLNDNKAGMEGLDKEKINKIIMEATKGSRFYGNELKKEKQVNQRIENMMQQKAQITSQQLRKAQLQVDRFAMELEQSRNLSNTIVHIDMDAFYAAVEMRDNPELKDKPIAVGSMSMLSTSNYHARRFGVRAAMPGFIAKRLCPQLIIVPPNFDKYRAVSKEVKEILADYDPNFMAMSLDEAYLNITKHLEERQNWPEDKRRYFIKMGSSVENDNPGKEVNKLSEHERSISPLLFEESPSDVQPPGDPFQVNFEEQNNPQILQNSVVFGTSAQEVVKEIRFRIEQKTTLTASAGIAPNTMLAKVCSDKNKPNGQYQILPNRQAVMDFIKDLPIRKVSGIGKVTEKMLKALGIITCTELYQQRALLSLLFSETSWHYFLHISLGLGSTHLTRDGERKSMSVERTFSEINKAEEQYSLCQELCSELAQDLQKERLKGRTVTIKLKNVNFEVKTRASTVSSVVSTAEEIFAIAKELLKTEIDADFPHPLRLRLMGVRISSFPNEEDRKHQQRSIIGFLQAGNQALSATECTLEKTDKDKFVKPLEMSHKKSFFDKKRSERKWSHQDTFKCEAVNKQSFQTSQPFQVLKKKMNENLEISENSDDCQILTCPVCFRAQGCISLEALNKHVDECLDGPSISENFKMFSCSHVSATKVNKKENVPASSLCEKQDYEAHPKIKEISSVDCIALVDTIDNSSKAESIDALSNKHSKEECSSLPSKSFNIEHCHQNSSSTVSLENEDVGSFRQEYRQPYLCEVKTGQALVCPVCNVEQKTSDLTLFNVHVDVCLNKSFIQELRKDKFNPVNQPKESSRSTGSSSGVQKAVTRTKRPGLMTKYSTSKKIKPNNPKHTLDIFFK
row,SMILES,Potency
1,CCOc1ccc(-c2cc(OC(=O)c3ccccc3)c3c(C)oc(C)c3c(=O)c2)cc1,"inconclusive: 79.4 µM [inhibitor, partial curve, poor fit]"
2,O=C(O)c1cccc(NS(=O)(=O)c2ccc(-c3ccc(S(=O)(=O)Nc4cccc(C(=O)O)c4)cc3)cc2)c1,active: 50.1 µM
3,COc1ccc(/C=C2\SC(=O)N(CCc3nnc(N)s3)C2=O)cc1,"inconclusive: 100 µM [inhibitor, single point]"
4,O=C(C[N+]1(CCO)CCOCC1)c1ccc(F)c2ccccc12,"inconclusive: 89.1 µM [inhibitor, partial curve, poor fit]"
5,CCc1ccc(/C=C/C(=O)c2cc(Br)ccc(=O)c2O)cc1,"inconclusive: 89.1 µM [inhibitor, partial curve, poor fit]"
6,CC(C)CC(NC(=O)c1ccccc1)C(=O)N/N=C/c1ccco1 (stereo not given),"inconclusive: 100 µM [inhibitor, single point]"
7,CC1=C(C(=O)OCc2ccccc2)C(c2cccc([N+](=O)[O-])c2)NC(=O)N1C (stereo not given),"inconclusive: 89.1 µM [inhibitor, partial curve, poor fit]"
8,Cc1ccccc1-c1ccc2ncnc(NCc3cccs3)c2c1,active: 22.4 µM
9,COc1ccc(C2NC(=O)CS2)cc1 (stereo not given),"inconclusive: 89.1 µM [inhibitor, single point]"
10,O=C(CCCCCn1c(SCc2ccncc2)nc2ccccc2c1=O)NCc1ccco1,"inconclusive: 89.1 µM [inhibitor, single point]"
11,CCOc1ccc(N2C(=O)CC(NC3CCN(C(=O)c4ccc(F)cc4)CC3)C2=O)cc1 (stereo not given),"inconclusive: 89.1 µM [inhibitor, single point]"
12,CC(=O)Nc1cc(NC(C)=O)cc(-c2nc3ccccc3[nH]2)c1,"inconclusive: 100 µM [inhibitor, single point]"
13,CCOc1cc(CNc2ccc(O)cc2)ccc1OCc1ccc(Cl)cc1,"inconclusive: 79.4 µM [inhibitor, partial curve, poor fit]"
14,CCCCOC(=O)c1c(C)oc2ccc(NS(=O)(=O)c3ccc4c5c(cccc35)C(=O)N4)cc12,"inconclusive: 89.1 µM [inhibitor, single point]"
15,CCN1CCN(c2c(S(=O)(=O)c3ccc(C)c(C)c3)cnc3cc(OC)c(OC)cc23)CC1,inactive
16,Cc1c(C(=O)NCc2ccccc2Br)oc2c1-c1[nH]ncc1CC2,inactive
17,CCn1c(C(=O)N2CCC(C(=O)NCCc3ccc(OC)cc3OC)CC2)cc2sccc21,"inconclusive: 89.1 µM [inhibitor, single point]"
18,N#Cc1c(N)oc(-c2ccco2)c1-c1ccco1,"inconclusive: 89.1 µM [inhibitor, single point]"
19,O=C(CN1C(=O)CCc2cc(S(=O)(=O)N3CCOCC3)ccc21)NCc1ccc(F)cc1,inactive
20,COc1ccc(-n2nnnc2SCC(=O)c2ccc(O)c(O)c2)cc1,active: 39.8 µM
21,COc1cccc(C(=O)c2sc3nc(-c4ccccc4)cc(C(F)(F)F)c3c2N)c1,"inconclusive: 89.1 µM [inhibitor, partial curve, poor fit]"
22,CCOC(=O)c1c[nH]c2nc(C)ccc2c1=O,"inconclusive: 79.4 µM [inhibitor, partial curve, poor fit]"

row,SMILES,Potency
1,CCc1ccc(NC(=O)CN2C(=O)C3(SCC(=O)N3c3ccccc3)c3ccccc32)cc1 (stereo not given),"inconclusive: 89.1 µM [inhibitor, single point]"
2,Cc1ccc(/C=C/C(=O)Nc2nnc(SCc3ccc(C#N)cc3)s2)o1,"inconclusive: 79.4 µM [inhibitor, partial curve, poor fit]"
3,O=C1C(=O)N(CCCn2ccnc2)C(c2ccc([N+](=O)[O-])cc2)/C1=C(\O)c1ccc2c(c1)OCCO2 (stereo not given),"inconclusive: 89.1 µM [inhibitor, partial curve, poor fit]"
4,O=c1cc(-c2ccc(O)cc2)oc2c(-c3cc(-c4cc(=O)c5c(O)cc(O)cc5o4)ccc3O)c(O)ccc12,active: 26.7 µM
5,O=C(Cc1cccs1)N/N=C/C=C/c1ccco1,active: 79.4 µM
6,COc1ccc(NC(=O)CSc2sc3c(O)cc(=O)[nH]c3c2C#N)c(OC)c1,"inconclusive: 7.08 µM [inhibitor, full curve, poor fit]"
7,CSC(N)=NCCCC(N)C(=O)O (stereo not given),"inconclusive: 39.8 µM [inhibitor, single point]"
8,C=CCc1cccc2cc(C(=O)Nc3ccc(CC(=O)O)cc3)c(=O)oc12,"inconclusive: 89.1 µM [inhibitor, single point]"
9,O=C(Nc1ccc2c(c1)OCO2)C1Cc2ccccc2CN1S(=O)(=O)c1cccs1 (stereo not given),"inconclusive: 79.4 µM [inhibitor, partial curve]"
10,COc1ccc(S(=O)(=O)N2CCOCC2)cc1NC(=O)/C=C/c1ccccc1,inactive
11,O=c1c(=O)n(-c2cccc(Cl)c2)ccn1Cc1cccc(F)c1,inactive
12,COc1cc(C=CC(=O)OCC=Cc2ccc3c(c2)OCO3)cc(OC)c1OC,inactive
13,O=Nc1c(-c2c(O)[nH]c3cc(Br)ccc23)[nH]c2ccccc12,inactive
14,COc1cc(/C=C2/C=Cc3ccccc32)ccc1N(C)C,"inconclusive: 89.1 µM [inhibitor, single point]"
15,O=Cc1cc(N=Nc2ccc(S(=O)(=O)O)cc2)ccc1O,"inconclusive: 100 µM [inhibitor, single point]"
16,CC(C)CNC(=O)COC(=O)c1c2c(nc3ccccc13)/C(=C\c1cccs1)CC2,inactive
17,O=C1CCCC2=C1C(c1ccc(O)c(O)c1)Nc1ccc3ccccc3c12 (stereo not given),"inconclusive: 89.1 µM [inhibitor, single point]"
18,Oc1ccc(Nc2nc(N3CCCC3)c3ccccc3n2)cc1,"inconclusive: 89.1 µM [inhibitor, partial curve, poor fit]"
19,COc1ccc(/C=N/NC(=O)COc2cccc3cccnc23)cc1OC,"inconclusive: 100 µM [inhibitor, single point]"
20,COc1cc(OC)c(NC(=O)CSc2nccn2C)cc1Cl,inactive
21,CCOc1cc(/C=C2\N=C(SC)SC2=O)cc([N+](=O)[O-])c1OC(C)=O,active: 44.7 µM
22,CC(=O)c1cc(-c2ccc(F)cc2)n(CCC(=O)Nc2cc(C)[nH]n2)c1C,inactive

row,SMILES,Potency
1,Cc1ccc(C2C(C(=O)c3cc4ccccc4o3)=C(O)C(=O)N2CCN2CCOCC2)o1 (stereo not given),"inconclusive: 89.1 µM [inhibitor, partial curve, poor fit]"
2,c1ccc(Cc2nnc3sc(-c4ccco4)nn23)cc1,active: 79.4 µM
3,CC1CC1C(=O)OCC(=O)Nc1ncc(Cl)cc1Cl (stereo not given),"inconclusive: 79.4 µM [inhibitor, single point]"
4,O=S(=O)(Nc1cccc2cccnc12)C1CC1,inactive
5,COC(=O)C1=C[C@@H](C(=O)OC)C2C3=C(C(=O)[C@]2(C)NC(=O)c2ccccc2)[C@H](C)n2c(=O)n(C)c(=O)n2[C@@H]3C1 (stereo not given in full),inactive
6,CCC(=O)Nc1ccc(C(=O)COC(=O)c2nc3nccc(C)n3n2)cc1,"inconclusive: 31.6 µM [inhibitor, partial curve, poor fit]"
7,Cc1ccc(C)c(NC(=O)NNC(=O)c2cc3ccccc3cc2O)c1,"inconclusive: 89.1 µM [inhibitor, partial curve, poor fit]"
8,Cn1nnnc1SCC1=C(C(=O)O)N2C(=O)[C@@H](NC(=O)[C@H](O)c3ccccc3)[C@H]2SC1,active: 1.58 µM
9,CCN(CC)Cc1cc2[nH]c3c4ccc(Cl)cc4ncc3c2cc1OC,"inconclusive: 56.2 µM [inhibitor, partial curve]"
10,CCc1ccc(N2CCN(C(=O)c3ccc(OC)c(OC)c3)CC2)cc1,"inconclusive: 25.1 µM [inhibitor, single point]"
11,Cc1csc(NC(=O)c2cc(-c3ccco3)nc3ccccc23)n1,"inconclusive: 28.2 µM [inhibitor, single point]"
12,Cc1cccc(OC(C)C(=O)N2CCC(c3nc4ccccc4o3)CC2)c1C (stereo not given),inactive
13,CN(C)c1nc(N/N=C/c2ccccc2O)nc(Nc2ccc(F)cc2)n1,"inconclusive: 89.1 µM [inhibitor, partial curve, poor fit]"
14,O=C(NCc1ccco1)C1Cc2ccccc2CN1C(=O)c1ccco1 (stereo not given),"inconclusive: 89.1 µM [inhibitor, single point]"
15,CCOC(=O)C1CCN(C(=O)c2ccc3c(c2)sc2nc(-c4ccc(OCC)cc4)cn23)CC1,"inconclusive: 89.1 µM [inhibitor, single point]"
16,O=C(NNC(=O)C1C2CCCCC21)c1coc(=O)c(Br)c1 (stereo not given),"inconclusive: 89.1 µM [inhibitor, single point]"
17,C=CC1=C(C(=O)O)N2C(=O)C(NC(=O)/C(=N\O)c3csc(N)n3)C2SC1 (stereo not given),"inconclusive: 39.8 µM [inhibitor, single point]"
18,Cc1cccc2c(N=NC(=O)c3ccc(NS(=O)(=O)c4cccs4)cc3)c(O)[nH]c12,"inconclusive: 89.1 µM [inhibitor, single point]"
19,COc1ccc(C(=O)NCC(c2cccnc2)N2CCc3ccccc3C2)cc1 (stereo not given),"inconclusive: 100 µM [inhibitor, partial curve, poor fit]"
20,COc1ccc(S(=O)(=O)N2CCC(C(=O)Nc3ccc(Oc4ccccc4)cc3)CC2)cc1OC,"inconclusive: 100 µM [inhibitor, partial curve, poor fit]"
21,Cc1ccc(/C=C/C(=O)N2CCc3ccccc32)o1,"inconclusive: 89.1 µM [inhibitor, single point]"
